Measured values reported in article PMC4336329 (PLoS ONE, 2015).
The whole screen tested about 310,000 compounds, of which about 14,000 (4.5%) showed an effect of 50% or more. Effects have a minus sign here. The list shows a part of the results.

target: human ether-à-go-go-related gene (hERG) potassium channel (human, UniProt Q12809); test: primary screen, population patch clamp on CHO cells stably expressing hERG
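Further: peak tail current of the secondary pulse compared with the same well before compound.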

Sequence of human ether-à-go-go-related gene (hERG) potassium channel (Q12809 whole entry, looked up): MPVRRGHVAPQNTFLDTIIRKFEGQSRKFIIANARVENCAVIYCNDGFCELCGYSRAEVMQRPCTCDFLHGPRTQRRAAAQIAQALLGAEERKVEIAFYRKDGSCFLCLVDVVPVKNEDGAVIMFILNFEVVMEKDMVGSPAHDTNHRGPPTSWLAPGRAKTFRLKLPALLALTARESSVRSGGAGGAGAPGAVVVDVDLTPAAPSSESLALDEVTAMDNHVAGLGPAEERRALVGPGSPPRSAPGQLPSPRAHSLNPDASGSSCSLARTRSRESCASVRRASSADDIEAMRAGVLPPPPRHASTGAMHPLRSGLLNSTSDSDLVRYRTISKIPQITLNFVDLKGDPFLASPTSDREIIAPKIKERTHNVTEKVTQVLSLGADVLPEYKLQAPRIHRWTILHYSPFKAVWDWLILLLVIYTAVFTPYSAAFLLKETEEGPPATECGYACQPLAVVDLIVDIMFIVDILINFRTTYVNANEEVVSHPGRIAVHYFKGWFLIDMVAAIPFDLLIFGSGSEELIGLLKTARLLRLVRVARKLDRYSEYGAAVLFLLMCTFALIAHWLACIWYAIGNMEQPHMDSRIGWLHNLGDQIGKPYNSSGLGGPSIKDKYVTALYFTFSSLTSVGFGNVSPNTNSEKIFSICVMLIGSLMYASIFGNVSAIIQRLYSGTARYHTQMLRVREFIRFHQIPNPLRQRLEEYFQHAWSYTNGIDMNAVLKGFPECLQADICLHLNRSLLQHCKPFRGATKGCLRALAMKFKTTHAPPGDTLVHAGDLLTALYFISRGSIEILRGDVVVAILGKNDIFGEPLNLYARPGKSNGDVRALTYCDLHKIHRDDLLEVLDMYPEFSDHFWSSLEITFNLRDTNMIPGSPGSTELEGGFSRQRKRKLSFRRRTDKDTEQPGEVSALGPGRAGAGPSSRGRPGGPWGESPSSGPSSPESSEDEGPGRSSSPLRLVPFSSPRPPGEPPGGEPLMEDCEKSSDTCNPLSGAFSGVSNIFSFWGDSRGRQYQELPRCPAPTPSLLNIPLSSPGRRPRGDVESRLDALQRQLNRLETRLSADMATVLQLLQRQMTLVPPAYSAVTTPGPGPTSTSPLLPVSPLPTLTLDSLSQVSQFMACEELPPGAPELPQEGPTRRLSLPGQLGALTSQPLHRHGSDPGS

SMILES | hERG current change (%, negative = inhibition) at 10uM
COc1cccc(NCc2cc(=O)oc3cc(C)c(O)cc23)c1 | 0.283%
O=C(O)c1c(-c2ccccc2)c(-c2ccccc2)nc2ccccc12 | 15.2%
C=CCNC(=O)c1cc(Cl)cc(Cl)c1 | 0.623%
COC(=O)c1ccc(N2CCN(C)CC2)c(NC(=O)c2cc3ccccc3o2)c1 | -6.95%
COc1ccc(Cl)cc1C(=O)N1CCN(c2ccccn2)CC1 | -3.86%
CC(=O)c1cnc2sccn2c1=O | -28%
Cc1cccc(N2C(=O)C(O)=C(C(=O)c3cccs3)C2c2cccc(Oc3ccccc3)c2)n1 (stereo not shown) | 2.99%
COc1ccc(Nc2cc(C)c3c(O)cccc3n2)cc1 | -23.6%
Clc1ccc(SCCOCCN2CCOCC2)cc1.O=C(O)C(=O)O | 1.54%
CCCNS(=O)(=O)c1ccc2c(c1)n(C)c(=O)n2C | 17.1%
Clc1ccc(N2CCN(Cc3ccccc3Cl)CC2)cc1 | 14.8%
O=C(C[n+]1cccc2ccccc21)c1ccccc1.[Br-] | -1.84%
CCOC(=O)C1=C(O)C(Nc2nccs2)(C(F)(F)F)N=C1C (stereo not shown) | 3.61%
c1ccc(CSc2nnc(-c3c[nH]c4ccccc34)o2)cc1 | 4.23%
COc1ccc(C2CC(c3ccc(Br)cc3)=NN2C(=S)Nc2ccccc2)cc1 (stereo not shown) | 12.4%
CCOC(=O)C1=C(C)C/C(=N\NC(=O)c2ccccc2O)CC1 | 8.16%
O=C(Nc1ccc2[nH]c(=O)[nH]c2c1)c1ccc([N+](=O)[O-])o1 | 4.06%
Cc1c(C)c2cc3c(C)coc3cc2oc1=O | 10.5%
Cc1ccc(-c2ccc(S(=O)(=O)NCc3ccco3)cc2)cc1 | 35%
CCC(=O)Nc1ccc2ccccc2c1 | 1.88%
CC1Sc2ccc(S(=O)(=O)CCC(=O)N(C)Cc3ccccc3)cc2NC1=O (stereo not shown) | -0.757%
CCOc1ccc(/C=N/NC(=O)c2csc(C)c2C)c(OCC)c1 | 6.43%

SMILES | hERG current change (%, negative = inhibition) at 10uM
CCc1ccccc1NC(=O)c1ccc2c(c1)CCN2S(C)(=O)=O | 12.7%
O=[N+]([O-])c1cccc(-c2nnc3cccc(Cl)n23)c1 | -0.313%
COc1cc(/C=N\n2cnnc2)ccc1OCC(=O)Nc1ccc(C)cc1 | -3.44%
O=C(c1cc(-c2cccnc2)nc2ccccc12)N1CCN(S(=O)(=O)c2cccs2)CC1 | -64.3%
Cn1nc(C(=O)OCc2ccc(F)cc2)c2ccccc2c1=O | 3.57%
CN(C)/C=C(/C#N)C(=O)c1cccc(Oc2ccc(C(C)(C)C)cc2)c1 | -16.2%
COc1ccc(S(=O)(=O)N(C)C)cc1NC(=O)COC(=O)c1nc2nccc(C)n2n1 | 9.68%
Cc1c(CCC(=O)N[C@@H](CCCNC(N)=O)C(=O)O)c(=O)oc2cc3oc4c(c3cc12)CCCC4 | 16%
O=[N+]([O-])c1ccc(N=Nc2c(O)[nH]c3ccc(F)cc23)cc1 | 0.959%
COc1ccc(OC)c(NC(=O)N2CCc3ccccc3C2)c1 | -5.69%
CCc1cc(-c2ccc3c(c2)COc2c4ccccc4nn2-3)on1 | 1.57%
O=C(COc1ccc2c(c1)OCO2)Nc1ccc(Cl)cn1 | -3.44%
C[n+]1c2n(c3ccccc31)N=C(c1ccc(Br)cc1)CS2.[Br-] | -69.5%
NC(=S)NN=C1c2ccccc2-c2ccccc21 | 18.5%
COc1ccc(/C=C2\NC(=S)N(CC3CCCO3)C2=O)c(OC)c1 (stereo not shown) | -3.39%
O=C(NCC1CCOCC1)c1ccc(OC2CCN(Cc3ccccn3)CC2)cc1 | 7.86%
Cc1ccc(OCCC(=O)OCC(=O)Nc2ccc3c(c2)OCCO3)cc1 | -10.3%
COc1ccc(C)cc1S(=O)(=O)N1CCN(c2ccccc2)CC1 | -5.8%
CC(C)(CNC(=O)c1cccc(S(=O)(=O)Nc2ccc(Br)cc2)c1)N1CCOCC1 | -41.1%
Clc1ccc(C(CCN2CCCC2)Cc2ccccc2)cc1 (stereo not shown) | -62.7%
Cc1ccc(CN=C(Nc2ccccc2)NC2CCCCC2)cc1 | -24.5%
COc1ccc(OC)c(CCNC(=O)c2cccc(NC(=O)C3=C(C)OCCS3)c2)c1 | 2.32%

SMILES | hERG current change (%, negative = inhibition) at 10uM
CCc1cc(C)cc(OCCNC(=O)c2cncc(Br)c2)c1 | -23.5%
COCCCNC(=O)Cn1c(=O)n(CCCCCC(=O)NCc2ccc3c(c2)OCO3)c(=O)c2sccc21 | -7.87%
COc1cc(/C=N/NC(=O)c2ccc(COc3cc(C)ccc3C(C)C)cc2)cc(OC)c1O | -0.207%
COC(=O)C(O)(CC(=O)Nc1ccc(Cl)cc1F)C(F)(F)F (stereo not shown) | 10.2%
O=C(Cc1cccc(C(F)(F)F)c1)NCC(=O)Nc1cc(Cl)ccc1Cl | 6.94%
Cc1csc(NC(=O)CCCC(=O)O)c1-c1nc2ccccc2s1 | -10.2%
COc1ccc2[nH]c(=O)c(CN(CC3CCCO3)C(=S)Nc3ccc(C)cc3)cc2c1 (stereo not shown) | -16.5%
O=C1CN(C(=O)c2cc3ccccc3oc2=O)C(c2ccc(F)cc2)c2cc(Br)ccc2N1 (stereo not shown) | -68.6%
O=C1NC(=S)N/C1=C\C=C\c1ccccc1 | 5.8%
CCCC(=O)NC(=S)Nc1cccc(Cl)c1N1CCCC1 | 16.3%
COc1ccc(N2CCN(S(=O)(=O)c3cn(C)cn3)CC2)cc1 | -1.47%
CCOc1ccccc1N(CC(=O)NC1CCCC1)C(=O)CCC(=O)Nc1cc(C)on1 | 0.413%
Cc1ccc(NC2CCCN(C(=O)c3cccc(-c4ncc[nH]4)c3)C2)cc1C (stereo not shown) | 3.23%
O=C1Nc2ccccc2/C1=N\c1sc2c(c1C(=O)Nc1ccccc1)CCCC2 | -18.1%
CC1CCN(C(=O)C2CCN(S(=O)(=O)c3ccc(-n4cnnn4)cc3)CC2)CC1 | -13.7%
Cc1ccc(S(=O)(=O)Cn2nnnc2CN(Cc2ccco2)Cc2cccs2)cc1 | 7.95%
Cc1ccc(-c2nnc(NC(=O)c3ccco3)o2)c(C)c1 | 6.75%
CN(C(=O)c1ccccc1OCc1ccc(Cl)cc1)c1ccccc1 | -7.03%
CCN(CC(=O)Nc1ccc(N2CCOCC2)cc1)Cc1nc2ccccc2c(=O)[nH]1 | -12.8%
C=CCc1ccccc1OCCn1ccnc1 | -8.89%
COC(=O)c1sccc1S(=O)(=O)Nc1ccc(S(N)(=O)=O)cc1 | -10.3%
N#Cc1ccc(-c2nc3ccccc3nc2-c2ccccc2)cc1C#N | 21.7%

SMILES | hERG current change (%, negative = inhibition) at 10uM
COC(=O)[C@@H]1C[C@@]2(Br)c3ccccc3N(S(=O)(=O)c3ccccc3)[C@H]2N1C(=O)OC | -5.99%
CN(C)S(=O)(=O)c1cccc(C(=O)NCCOC(=O)c2cc(F)c(F)cc2Cl)c1 | -25.7%
COc1ccccc1N(C)S(=O)(=O)c1ccc(C)c(C(=O)Nc2nccs2)c1 | -7.03%
Cc1[nH]c(=O)c(C#N)c2c1CCCC2 | -4.65%
CCOc1ccc(N2C(=O)CC(NC3CCN(C(=O)c4cccs4)CC3)C2=O)cc1 (stereo not shown) | -24.7%
CCc1cc(C(=O)N2CCCC(CCC(=O)N3CCN(c4ccccn4)CC3)C2)no1 (stereo not shown) | -17.4%
CCCNC(=O)c1ccc2c(=O)c(O)c(C)[nH]c2c1 | -15.1%
COC(=O)c1cc(NC(=O)CN2CCOCC2)cc(C(=O)OC)c1 | 23.6%
COc1ccc(-n2c(C)cc(C(=O)NC3CCCCC3)c2C)cc1 | -5.56%
CCn1c(CSc2nc(C)cc(C)n2)nnc1SCC(=O)N1CCCc2ccccc21 | -3.53%
CNC(=O)Cn1nc(-c2ccc(Cl)cc2)c2ccccc2c1=O | 19.1%
Cc1c(CN(C)Cc2cn(C)nc2-c2ccccc2F)[nH]c2ccccc12 | -6.24%
COC(=O)c1sccc1NC(=O)CC1C(=O)NCCN1C(=O)Nc1cc(Cl)ccc1OC (stereo not shown) | -12.9%
CC1CC(=O)Nc2ccccc2N1S(=O)(=O)c1cccs1 (stereo not shown) | 10.5%
COC(=O)CN(c1cccc(OC)c1)S(C)(=O)=O | 10.4%
N#C/C(=C\c1cccnc1)C(=O)Nc1ccc(Cl)cc1 | 7.07%
Nc1ccc(S(=O)(=O)C(F)(F)F)cc1N | 2.62%
O=C(c1ccccc1)c1cccc(NC(=O)c2ccco2)c1 | -48.6%
N#Cc1nc(-c2cccs2)oc1NCc1ccco1 | -5.22%
Cc1cc(C)c2nc(-c3cccnc3)cc(C(=O)Nc3ccc(S(=O)(=O)Nc4onc(C)c4C)cc3)c2c1 | 22.9%
O=C(O)CCCCCCCC(=O)O | 25.5%
Fc1cccc2sc(Nc3nnc(-c4ccco4)o3)nc12 | 37.9%
